Measured values: EPA's CvTdb concentration-time database
This continues a long series; more values of the same kind are listed elsewhere.

How the values were obtained:
[1] = test system: Rat; assay: concentration in brain after dosing; settings: 1 h; dosed: 2-Methyltetrahydrofuran; 30 mg/kg; oral; Male; F344
[2] = test system: Rat; assay: concentration in brain after dosing; settings: 2 h; dosed: 2-Methyltetrahydrofuran; 10 mg/kg; iv; Female; F344
[3] = test system: Rat; assay: concentration in brain after dosing; settings: 10 min; dosed: 2-Methyltetrahydrofuran; 30 mg/kg; oral; Female; F344
[4] = test system: Rat; assay: concentration in plasma after dosing; settings: 6 h; dosed: 2-Methyltetrahydrofuran; 400 mg/kg; oral; Male; F344
[5] = test system: Rat; assay: concentration in brain after dosing; settings: 20 min; dosed: 2-Methyltetrahydrofuran; 10 mg/kg; iv; Male; F344
[6] = test system: Rat; assay: concentration in plasma after dosing; settings: 0.75 h; dosed: 2-Methyltetrahydrofuran; 30 mg/kg; oral; Male; F344
[7] = test system: Rat; assay: concentration in brain after dosing; settings: 0.75 h; dosed: 2-Methyltetrahydrofuran; 400 mg/kg; oral; Male; F344
[8] = test system: Rat; assay: concentration in plasma after dosing; settings: 8 h; dosed: 2-Methyltetrahydrofuran; 100 mg/kg; oral; Female; Harlan Sprague Dawley
[9] = test system: Rat; assay: concentration in brain after dosing; settings: 0.5 h; dosed: 2-Methyltetrahydrofuran; 10 mg/kg; iv; Male; F344
[10] = test system: Rat; assay: concentration in brain after dosing; settings: 1 h; dosed: 2-Methyltetrahydrofuran; 10 mg/kg; iv; Male; F344
[11] = test system: Rat; assay: concentration in plasma after dosing; settings: 8 h; dosed: 2-Methyltetrahydrofuran; 400 mg/kg; oral; Female; Harlan Sprague Dawley
[12] = test system: Rat; assay: concentration in brain after dosing; settings: 1.5 h; dosed: 2-Methyltetrahydrofuran; 30 mg/kg; oral; Female; F344
[13] = test system: Rat; assay: concentration in plasma after dosing; settings: 12 h; dosed: 2-Methyltetrahydrofuran; 400 mg/kg; oral; Female; Harlan Sprague Dawley
[14] = test system: Rat; assay: concentration in brain after dosing; settings: 1.5 h; dosed: 2-Methyltetrahydrofuran; 10 mg/kg; iv; Male; F344
[15] = test system: Rat; assay: concentration in brain after dosing; settings: 2 h; dosed: 2-Methyltetrahydrofuran; 30 mg/kg; oral; Male; F344
[16] = test system: Rat; assay: concentration in brain after dosing; settings: 8 min; dosed: 2-Methyltetrahydrofuran; 10 mg/kg; oral; Male; F344
[17] = test system: Rat; assay: concentration in brain after dosing; settings: 10 min; dosed: 2-Methyltetrahydrofuran; 10 mg/kg; iv; Male; F344
[18] = test system: Rat; assay: concentration in plasma after dosing; settings: dosed: Bromochloroacetic acid, 100 mg/kg, oral, Female, F344
[19] = test system: Rat; assay: concentration in plasma after dosing; settings: dosed: Bromochloroacetic acid, 100 mg/kg, oral, Female, F344; remark: listed apart in the source
[20] = test system: Rat; assay: concentration in plasma after dosing; settings: dosed: Bromochloroacetic acid, 100 mg/kg, oral, Male, F344
[21] = test system: Rat; assay: concentration in plasma after dosing; settings: 48 h; dosed: Fluorotelomer alcohol 8+2; 160 mg/kg; oral; Female; Harlan Sprague Dawley
[22] = test system: Rat; assay: concentration in plasma after dosing; settings: dosed: Formamide, 600 mg/kg, oral, Female, Harlan Sprague Dawley
[23] = test system: Rat; assay: concentration in plasma after dosing; settings: dosed: Formamide, 36 mg/kg, oral, Female, Harlan Sprague Dawley
[24] = test system: Rat; assay: concentration in plasma after dosing; settings: 0.5 h; dosed: Formamide; 30 mg/kg; iv; Female; F344
[25] = test system: Rat; assay: concentration in plasma after dosing; settings: dosed: Formamide, 90 mg/kg, iv, Male, Harlan Sprague Dawley
[26] = test system: Rat; assay: concentration in plasma after dosing; settings: dosed: Formamide, 90 mg/kg, iv, Male, Harlan Sprague Dawley; remark: listed apart in the source
[27] = test system: Rat; assay: concentration in plasma after dosing; settings: dosed: Formamide, 36 mg/kg, oral, Female, Harlan Sprague Dawley; remark: listed apart in the source
[28] = test system: Rat; assay: concentration in plasma after dosing; settings: dosed: Formamide, 600 mg/kg, oral, Female, Harlan Sprague Dawley; remark: listed apart in the source
[29] = test system: Rat; assay: concentration in plasma after dosing; settings: 5 h; dosed: Formamide; 30 mg/kg; iv; Female; F344
[30] = test system: Rat; assay: concentration in plasma after dosing; settings: dosed: Formamide, 90 mg/kg, iv, Male, Harlan Sprague Dawley; remark: listed apart in the source
[31] = test system: Rat; assay: concentration in plasma after dosing; settings: dosed: Formamide, 36 mg/kg, oral, Female, Harlan Sprague Dawley; remark: listed apart in the source
[32] = test system: Rat; assay: concentration in plasma after dosing; settings: 0.5 h; dosed: Formamide; 30 mg/kg; iv; Female; F344; remark: listed apart in the source
[33] = test system: Rat; assay: concentration in plasma after dosing; settings: 1 h; dosed: Pyridine; 10 mg/kg; oral; Male; F344
[34] = test system: Rat; assay: concentration in plasma after dosing; settings: dosed: Pyridine, 5 mg/kg, oral, Female, F344
[35] = test system: Rat; assay: concentration in plasma after dosing; settings: 20 min; dosed: Pyridine; 10 mg/kg; oral; Male; Harlan Sprague Dawley
[36] = test system: Rat; assay: concentration in plasma after dosing; settings: 2 min; dosed: Pyridine; 50 mg/kg; oral; Male; Harlan Sprague Dawley
[37] = test system: Rat; assay: concentration in plasma after dosing; settings: 1 h; dosed: Pyridine; 200 mg/kg; oral; Female; Harlan Sprague Dawley
[38] = test system: Rat; assay: concentration in plasma after dosing; settings: 1 h; dosed: Pyridine; 200 mg/kg; oral; Female; F344

CC1CCCO1 (stereo not given) [2-Methyltetrahydrofuran]
Settings	concentration in brain [µg/g]	concentration in plasma [ng/mL]
[1]	7.08	–
[2]	0.109	–
[3]	8.96	–
[4]	–	94300
[5]	6.12	–
[6]	–	15400
[7]	153	–
[8]	–	91.9
[9]	2.32	–
[10]	1.76	–
[11]	–	68000
[12]	1.73	–
[13]	–	1920
[14]	0.582	–
[15]	2.18	–
[16]	2.15	–
[17]	6.84	–

O=C(O)C(Cl)Br (stereo not given) [Bromochloroacetic acid]
concentration in plasma [ng/mL]
Settings	0.25 h	6 h	7 h	20 min
[18]	25800	2090	–	–
[19]	–	–	4230	25400
[20]	7270	271	–	–

OCCC(F)(F)C(F)(F)C(F)(F)C(F)(F)C(F)(F)C(F)(F)C(F)(F)C(F)(F)F [Fluorotelomer alcohol 8+2]
Settings	concentration in plasma [ng/mL]
[21]	5

NC=O [Formamide]
Settings	concentration in plasma [ng/mL]
[22], 10 min	323000
[22], 20 h	343000
[23], 1.5 h	48100
[23], 30 h	6900
[25], 0.25 h	154000
[25], 24 h	32900
[26], 0.5 h	149000
[26], 48 h	4800
[27], 10 min	27500
[27], 20 h	12300
[28], 1 h	610000
[28], 72 h	28100
[30], 5 min	134000
[30], 36 h	9800
[31], 10 min	15500
[31], 20 h	18600

Settings	concentration in plasma [ng/mL]
[24]	31700
[29]	31300
[32]	38700

c1ccncc1 [Pyridine]
Settings	concentration in plasma [ng/mL]
[33]	2200
[35]	4890
[36]	25000
[37]	99700
[38]	90300

[34]
Settings	concentration in plasma [ng/mL]
2 h	3390
14 h	111
